Here are results for 167 variants from the RNAGym collection of RNA variant scans (doi:10.7554/elife.90254).

First the molecules themselves.
B1: LINE1-mini (parent)
chain: GGCAGAGCUCAACACAGCGUGGCAAAGUGGCUGUGGCUAGACUGCC

The source gives no read counts; variants with many changes may rest on few reads.

Variants of B1 are the subject of the series. In words: self-cleavage, relative activity (ratio to wild type); higher = more cleavage; in vitro, sequencing; the parent is a self-cleaving ribozyme.
Consider G7U C18U C45G, for which the self-cleavage was determined as 0.65. Then G7U C42A C45U, with 0.1.

On to G7U A24G A26G G40C C42A, for which the self-cleavage turned out to be 0.05. G7U A12U U20G U34C: the self-cleavage is 0.05. Then G7U C10G A14U, with 0.04; and G7U C8A C10U A14U C31U, with 0.09; and G7U C8A A12U C13G A14C G19C G29C U38A, with 0.24. G7U C13A G29U: the self-cleavage worked out at 0.11. Then G7U C13A G29A, with 0.2; and G7U C18U C31U A41U, with 0.02. Then G7U G35U C46A, with 0.11; and G7U G19U U32C U43G, with 0.04; and G7U G29U G44C, with 0.02. Then G7U C23A G30C G40A, with 0.23.

With G7U G22C C31A, the self-cleavage amounted to 0.04. The result for G7U U20A C46G reads 0.05; that for G7U C13G C15G G27U G44C, 0.09; that for G7U A25U A26C, 0.07. In the case of G7U G21A G22U A25G, the self-cleavage is 0.17. Then G7U C13A C31A C42U C46U, with 0.1; and G7U A12U C13U C46A, with 0.05; and G7U C10A C18G U20G G30C A39G, with 0. Then G7U C10G C13A C31G G40A, with 0.01; and G7U A16G U28G C37G, with 0.01. The result for G7U A12G G21C reads 0; that for G7U C8A G22U G36U, 0.43; that for G7U G21U G35A G44C, 0.

As for G7U C10A G36U, the self-cleavage was found to be 0.05. The result for G7U C15G A24U A26U reads 0.07; that for G7U C23G G29C, 0.03. Then G7U A14G C42G, with 0.22; and G7U A16C G22C G27U G33U, with 0.17. The result for G7U A16U G33C reads 0.24; that for G7U U38C G40U, 0.06; that for G7U U9G G22C C42A, 0.02. As to G7U C13G U20C A24C A25C G40A C45A, the self-cleavage is 0.01. The result for G7U C10G G27U U28G G36A U38C C42A reads 0.01. Then G7U A25G A39G U43A, with 0.19; and G7U A16U C42G, with 0.25. The result for G7U A12U G36C A39G reads 0.02; that for G7U A14C A25G G36U, 0.11. As to G7U A14C U43A C46A, the self-cleavage worked out at 0.18. Then G7U G35A U38C A41G C42U U43C, with 0.01.

With G7U G19U G22C G35A, the self-cleavage was 0.08. The result for G7U G17C G35U A41G U43C reads 0.07; that for G7U G29A A41U, 0.45; that for G7U C8U G21C U32A, 0.16. The result for G7U C15A G40A reads 0.09; that for G7U C31A U32G U34C U38A, 0.03; that for G7U G17U G22U G33A C42A, 0.46.

For the variant G7U C15A A39G, the self-cleavage came to 0.14. As to G7U C15A A39U, the self-cleavage turned out to be 0.09. Then G7U C10U G22C, with 0.03. The result for G7U G21U U34C reads 0.08; that for G7U G17C G27A U32G G33U, 0.07. Then G7U C10A G19A G21U G22U G40A A41C C46A, with 0.01; and G7U A14U C31A G33A G40A, with 0.15; and G7U A16C U20A A24G G35U, with 0.01. As for G7U U9C A24U C37G G44A, the self-cleavage is 0.02. The result for G7U A16U C23G U38G U43C reads 0.02; that for G7U A12G U20C C31A, 0.01. Take G7U C8A A25G C42G: the self-cleavage amounted to 0.62.

With G7U C15G G21A G44A C46G, the self-cleavage stood at 0.08.

Turning to G7U G40U C45U, the self-cleavage is 0.16.

On to G7U G40U C45A, for which the self-cleavage came to 0.1. Then G7U C13U G22C G40C, with 0.55. For G7U C8G G17C A25G, the self-cleavage amounted to 0.09.

Consider G7U U28A G35A, for which the self-cleavage is 0.06. The result for G7U G19U G22C reads 0.03; that for G7U C8G G29U C42U, 0.13; that for G7U U9C U32A U38C, 0.09. Regarding G7U A25U G33C, the self-cleavage came to 0.08. Then G7U C15A U20G G27C, with 0.13; and G7U C10A C13U, with 0.01; and G7U A14G G30A, with 0.03. Then G7U G29C U34C, with 0.08. Then G7U A12U A24U U28G G35A, with 0.1. Turning to G7U G22U G35U C45G, the self-cleavage came out at 0.22. The result for G7U G21A U38G reads 0.02; that for G7U C10A G19U G35C, 0.02; that for G7U G30C A41U C45A, 0.01. Then G7U C13A G19A, with 0.05. The result for G7U C10U C13U C18U G22A C31U C37G reads 0.09; that for G7U U9A A11U A16C, 0.04; that for G7U A24U G35C U38A G40C, 0.07.

Regarding G7U U20C G29U, the self-cleavage came out at 0.06. Then G7U C10G C42U, with 0; and G7U G21C U34A, with 0.04; and G7U G21A C23U A25U G40C A41C, with 0.35. The result for G7U G22A G36U A41G reads 0.01; that for G7U A14C C18U G36A, 0.36.

Consider G7U G17C U34G, for which the self-cleavage was 0.19. The result for G7U G21C C42A reads 0.12; that for G7U A14C C31G U38C, 0. Then G7U A26C G44A C46U, with 0.06. As to G7U G17A G27C, the self-cleavage came out at 0.04. The result for G7U C31A C45U reads 0.07. The result for G7U C15A G21C reads 0.13; that for G7U A16U G35A, 0.01. The result for G7U U32C G33A reads 0.11; that for G7U U20A C42U, 0.02; that for G7U C15A G21U C31A, 0.03. Turning to G7U U34A G35U C42G, the self-cleavage amounted to 0.03. Consider G7U G30A G33U G40C, for which the self-cleavage is 0.13.

Turning to G7U C23G U32A U43C, the self-cleavage is 0.04. The result for G7U A24U C31U reads 0.13; that for G7U G35A G40U G44A, 0.03.

Take G7U A12G C46G: the self-cleavage is 0.02. The result for G7U C18A U20C reads 0.03; that for G7U C18G A39G, 0.01. The result for G7U C10A A11G G17C A24G reads 0.01; that for G7U C37U A41U, 0.06; that for G7U C23A U28C G30A G40U, 0.07. In the case of G7U A25G G40A, the self-cleavage was 0.01. As to G7U C13U G36A, the self-cleavage came to 0.07. The result for G7U C8A C10A G21A A24U U28G reads 0.02; that for G7U U9A U38A A39U G44U, 0.01.

For G7U G21U C37G U38A, the self-cleavage was determined as 0. The result for G7U C8A G21A U34G U38G A41G U43A reads 0.49; that for G7U C8G A16C G35A, 0.06.

Consider G7U G29A G35A A39U, for which the self-cleavage worked out at 0.05. Then G7U C13A G33U, with 0.07. The result for G7U C13A G33A reads 0.12; that for G7U A26U C37A, 0.01; that for G7U U9C U20A G27C, 0.03.

With G7U C8G C13A G19U G44A, the self-cleavage is 0.09. Then G7U U20A A26G G40C, with 0.07.

On to G7U C10U C42A U43C C45G, for which the self-cleavage stood at 0.02. The result for G7U G22U G36A A41U reads 0.18; that for G7U G29U U32A, 0.07; that for G7U G21C C45G, 0.07. Then G7U C15U G17C, with 0.07; and G7U C13U A14C C15A G19A G21C A25U G27U, with 0.03.

In the case of G7U C15G G33U G44C, the self-cleavage was 0.02.

Turning to G7U U9A C15A C31A, the self-cleavage came to 0.16.

With G7U G27A C31A U34A, the self-cleavage amounted to 0.05. The result for G7U U20A G21U reads 0.03; that for G7U C18U C46G, 0.04. Take G7U C15G G27C C37G: the self-cleavage amounted to 0.01.

G7U A16C G36A C46A: the self-cleavage was 0.05. Then G7U G29U A41U C42A, with 0.04. Then G7U A24C G40C, with 0.1. Then G7U U20C C31G G36U C42U, with 0.05; and G7U G17C G27C U34G, with 0.04. For the variant G7U A39U G40A, the self-cleavage is 0.12. G7U C10G G22C G30U G36A: the self-cleavage worked out at 0.02. Then G7U C18G A25C C31U U32C G36U, with 0.03; and G7U G19C G21A, with 0.03.

As for G7U G21U G35A, the self-cleavage came to 0.15. As to G7U A24C C42U, the self-cleavage worked out at 0.23. As for G7U C8U G29U C31U U34C G40C C42A, the self-cleavage turned out to be 0.23. Consider G7U C8A U9A C31G C37U, for which the self-cleavage was 0.04.

Regarding G7U C18G A41U C45A, the self-cleavage was 0.04.

As for G7U A16U C37U C46U, the self-cleavage is 0.04. For the variant G7U C8U C13G, the self-cleavage is 0.77. The result for G7U A14U C15A reads 0.19. The result for G7U C13A C37A reads 0.01; that for G7U C13U G21U A24C U32A A41U, 0.12; that for G7U U9C U34C, 0.01.

In the case of G7U C10A A12G G35U C46U, the self-cleavage is 0. Regarding G7U C23U A26U G27C U38A A41G, the self-cleavage was 0.02.

Regarding G7U G30U U34A G40A A41U, the self-cleavage was 0.01.

For G7U C8U U32C C45U, the self-cleavage came to 0.09.

Consider G7U C10G U38A, for which the self-cleavage came to 0. Turning to G7U U20G A24C, the self-cleavage was 0.04. As for G7U A39C A41U, the self-cleavage amounted to 0.53. The result for G7U A12G C18A G29U G40U reads 0.02.
